Test results: PMC10932545
Like-named read-outs stand apart in the source and are kept apart here. Results are given in words; binding and its absence hold for the method and conditions named. In cells and extracts the contact can be indirect. Some binding calls cover weakened binding; strength is not graded here. For some assays here: Tags and fused reporters may be left off the sequences shown. Values belong to the molecule of their own block, whether it stands above or below them.

The chains behind the UniProt entries cited, without tags or fusion partners.
UniProt Q9WTX6: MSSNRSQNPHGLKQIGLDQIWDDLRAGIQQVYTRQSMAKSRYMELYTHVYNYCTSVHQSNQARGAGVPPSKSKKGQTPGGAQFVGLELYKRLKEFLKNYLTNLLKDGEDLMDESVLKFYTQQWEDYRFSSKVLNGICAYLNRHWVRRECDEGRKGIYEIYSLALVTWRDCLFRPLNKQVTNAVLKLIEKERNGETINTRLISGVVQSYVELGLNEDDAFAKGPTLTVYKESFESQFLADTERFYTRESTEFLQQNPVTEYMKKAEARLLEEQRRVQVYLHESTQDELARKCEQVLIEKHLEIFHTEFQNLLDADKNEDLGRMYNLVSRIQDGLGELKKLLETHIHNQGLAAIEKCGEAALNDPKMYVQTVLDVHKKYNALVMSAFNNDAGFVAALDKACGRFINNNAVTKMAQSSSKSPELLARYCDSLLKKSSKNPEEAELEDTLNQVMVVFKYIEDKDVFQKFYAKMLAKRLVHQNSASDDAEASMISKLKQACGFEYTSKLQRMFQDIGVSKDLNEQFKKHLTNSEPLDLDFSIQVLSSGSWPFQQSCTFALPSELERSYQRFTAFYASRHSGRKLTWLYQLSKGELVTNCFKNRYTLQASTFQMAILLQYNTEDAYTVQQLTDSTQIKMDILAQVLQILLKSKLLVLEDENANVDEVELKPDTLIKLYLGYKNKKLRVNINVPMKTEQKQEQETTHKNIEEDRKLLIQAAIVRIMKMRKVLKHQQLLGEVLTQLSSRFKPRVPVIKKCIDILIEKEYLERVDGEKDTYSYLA
UniProt Q9JMB7: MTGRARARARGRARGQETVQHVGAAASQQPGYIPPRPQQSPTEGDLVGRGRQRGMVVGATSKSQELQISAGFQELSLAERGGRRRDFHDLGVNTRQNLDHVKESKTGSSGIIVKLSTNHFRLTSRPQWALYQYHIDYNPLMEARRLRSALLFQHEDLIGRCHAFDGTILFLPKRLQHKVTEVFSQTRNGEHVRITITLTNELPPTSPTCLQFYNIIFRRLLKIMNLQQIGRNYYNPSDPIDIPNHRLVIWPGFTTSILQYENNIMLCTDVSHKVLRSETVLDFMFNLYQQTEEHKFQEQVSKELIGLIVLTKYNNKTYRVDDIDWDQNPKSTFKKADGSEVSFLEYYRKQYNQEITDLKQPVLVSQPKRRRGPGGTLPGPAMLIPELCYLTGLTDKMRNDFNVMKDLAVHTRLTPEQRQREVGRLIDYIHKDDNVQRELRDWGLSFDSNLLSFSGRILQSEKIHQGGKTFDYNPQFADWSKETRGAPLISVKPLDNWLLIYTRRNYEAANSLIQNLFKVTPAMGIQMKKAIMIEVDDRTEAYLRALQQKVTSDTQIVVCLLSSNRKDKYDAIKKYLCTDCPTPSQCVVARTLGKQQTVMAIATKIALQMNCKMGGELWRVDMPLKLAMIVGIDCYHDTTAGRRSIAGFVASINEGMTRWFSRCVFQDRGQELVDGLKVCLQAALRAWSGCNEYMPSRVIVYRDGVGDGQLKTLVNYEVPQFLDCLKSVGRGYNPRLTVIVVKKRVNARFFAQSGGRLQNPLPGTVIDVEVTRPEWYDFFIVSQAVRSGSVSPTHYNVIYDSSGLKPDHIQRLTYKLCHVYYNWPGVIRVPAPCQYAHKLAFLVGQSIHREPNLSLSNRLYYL
UniProt Q62093: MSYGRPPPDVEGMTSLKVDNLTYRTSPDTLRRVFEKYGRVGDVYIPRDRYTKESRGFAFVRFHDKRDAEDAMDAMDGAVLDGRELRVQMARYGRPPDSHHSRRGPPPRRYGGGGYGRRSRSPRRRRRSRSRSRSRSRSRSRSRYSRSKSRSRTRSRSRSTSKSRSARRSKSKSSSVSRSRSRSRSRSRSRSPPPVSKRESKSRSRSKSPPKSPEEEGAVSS

Legend:
FBXO24-mCherry = target: T1, FBXO24-mCherry (UniProt Q9D417); assay: co-IP; FBXO24-mCherry expressed in HEK293T cells, incubated with the testicular protein lysate; anti-mCherry beads; western blot; mCherry vector as control
T1 sequence: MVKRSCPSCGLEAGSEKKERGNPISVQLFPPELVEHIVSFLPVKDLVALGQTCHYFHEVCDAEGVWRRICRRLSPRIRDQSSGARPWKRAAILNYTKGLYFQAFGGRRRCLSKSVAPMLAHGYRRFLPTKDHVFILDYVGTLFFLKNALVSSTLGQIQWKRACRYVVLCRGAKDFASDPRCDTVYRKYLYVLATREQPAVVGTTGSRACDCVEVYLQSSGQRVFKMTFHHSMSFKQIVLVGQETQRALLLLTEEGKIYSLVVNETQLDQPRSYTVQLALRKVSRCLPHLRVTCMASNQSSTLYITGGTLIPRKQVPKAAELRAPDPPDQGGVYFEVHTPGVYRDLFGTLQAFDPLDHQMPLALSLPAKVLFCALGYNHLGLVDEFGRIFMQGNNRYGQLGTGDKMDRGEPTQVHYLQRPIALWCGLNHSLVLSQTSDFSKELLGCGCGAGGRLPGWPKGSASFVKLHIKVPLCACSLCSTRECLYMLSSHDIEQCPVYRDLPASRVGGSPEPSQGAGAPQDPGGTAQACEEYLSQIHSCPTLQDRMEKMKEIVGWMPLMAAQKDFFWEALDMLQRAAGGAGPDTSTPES

[1] = target: T2, FBXO24-HA (FBXO24 with a C-terminal HA epitope tag, from Fbxo24-HA-tagged transgenic mice) (mouse) (UniProt Q9D417); assay: co-IP; testis lysate of Fbxo24-HA-tagged mice in IP buffer, anti-HA nanobody agarose beads, 4°C overnight, western blot; wild-type testis as negative control
T2 sequence: T1 sequence

[2] = target: T3, truncated FBXO24 that contains only the F-box domain (mCherry-tagged) (UniProt Q9D417); assay: co-IP; HEK293T cells transfected with the indicated plasmids, 48 hr; mCherry-Trap beads, 4°C 2 hr, wash 10 mM Tris-HCl pH 7.5, 150 mM NaCl, 0.5 mM EDTA; western blot
T3 sequence: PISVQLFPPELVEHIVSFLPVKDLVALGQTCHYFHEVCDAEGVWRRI

[3] = target: T2, FBXO24-HA (FBXO24 with a C-terminal HA epitope tag, from Fbxo24-HA-tagged transgenic mice) (mouse); assay: co-IP; testis lysate of Fbxo24-HA-tagged mice in IP buffer, anti-HA nanobody agarose beads, 4°C overnight, western blot; wild-type testis as negative control; remark: listed apart in the source

Molecule: CUL1 (from UniProt Q9WTX6 1-776)
binding (FBXO24-mCherry): binds | binding [1]: binds

Molecule: MIWI-myc (from UniProt Q9JMB7 1-862)
binding [2]: binds

B1: transition protein TNP1 (protein, UniProt P10856 1-55)
chain: MSTSRKLKTHGMRRGKNRAPHKGVKRGGSKRKYRKSVLKSRKRGDDASRNYRSHL
binding [3]: no binding

B2: SRSF3 (protein, UniProt P84104 1-164)
chain: MHRDSCPLDCKVYVGNLGNNGNKTELERAFGYYGPLRSVWVARNPPGFAFVEFEDPRDAADAVRELDGRTLCGCRVRVELSNGEKRSRNRGPPPSWGRRPRDDYRRRSPPPRRRSPRRRSFSRSRSRSLSRDRRRERSLSRERNHKPSRSFSRSRSRSRSNERK
binding [3]: binds

Next, values leading:

binding [1]: binds
Molecule: SRSF2 (from UniProt Q62093 1-221)

binding (FBXO24-mCherry): binds | binding [1]: binds
Molecule: MIWI (from UniProt Q9JMB7 1-862)
